Out of some 310,000 compounds screened, about 2,200 (0.71%) showed an effect of 50% or more. Effects have a minus sign here. The list shows a part of the results.
target: human ether-à-go-go-related gene (hERG) potassium channel (human, UniProt Q12809); assay: primary screen, population patch clamp on CHO cells stably expressing hERG
Sequence (Q12809 whole entry, looked up): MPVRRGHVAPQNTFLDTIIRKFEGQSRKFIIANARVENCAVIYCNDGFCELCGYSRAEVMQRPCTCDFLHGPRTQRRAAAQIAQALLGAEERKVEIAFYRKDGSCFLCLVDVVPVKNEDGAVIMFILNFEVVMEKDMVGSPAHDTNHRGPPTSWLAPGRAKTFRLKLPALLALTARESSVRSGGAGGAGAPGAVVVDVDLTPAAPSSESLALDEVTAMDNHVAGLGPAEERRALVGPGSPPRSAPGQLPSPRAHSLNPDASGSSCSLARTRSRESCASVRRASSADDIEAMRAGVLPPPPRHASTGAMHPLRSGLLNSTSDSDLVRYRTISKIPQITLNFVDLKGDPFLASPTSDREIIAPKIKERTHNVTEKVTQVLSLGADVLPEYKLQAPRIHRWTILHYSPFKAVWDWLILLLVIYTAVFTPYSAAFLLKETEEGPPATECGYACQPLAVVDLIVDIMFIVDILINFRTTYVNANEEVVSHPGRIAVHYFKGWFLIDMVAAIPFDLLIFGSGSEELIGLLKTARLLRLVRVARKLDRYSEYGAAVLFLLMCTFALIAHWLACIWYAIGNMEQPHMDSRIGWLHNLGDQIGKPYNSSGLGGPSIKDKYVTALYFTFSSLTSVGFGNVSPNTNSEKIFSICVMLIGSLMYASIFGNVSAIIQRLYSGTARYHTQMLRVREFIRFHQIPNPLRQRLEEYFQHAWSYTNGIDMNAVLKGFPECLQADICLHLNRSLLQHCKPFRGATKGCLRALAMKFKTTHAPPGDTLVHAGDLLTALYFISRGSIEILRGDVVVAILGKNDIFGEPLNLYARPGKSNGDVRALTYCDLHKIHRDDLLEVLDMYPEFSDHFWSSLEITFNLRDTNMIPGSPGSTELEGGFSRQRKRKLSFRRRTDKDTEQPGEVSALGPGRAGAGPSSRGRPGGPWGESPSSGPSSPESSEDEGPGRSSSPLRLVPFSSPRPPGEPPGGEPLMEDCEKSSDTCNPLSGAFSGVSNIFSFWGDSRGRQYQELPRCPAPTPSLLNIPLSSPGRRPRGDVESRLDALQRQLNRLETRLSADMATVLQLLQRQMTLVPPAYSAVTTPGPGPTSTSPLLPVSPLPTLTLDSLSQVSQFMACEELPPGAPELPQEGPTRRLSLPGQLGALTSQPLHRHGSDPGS

SMILES | hERG current change (%, negative = inhibition) at 1uM [%]
CNc1nc2c(-c3ccc(Cl)cc3)nnn2c2ccccc12 | 12.1
CCCCn1c(N)c(N(CCOC)C(=O)CCNC(=O)c2ccccc2Cl)c(=O)[nH]c1=O | 10.6
O=C(COc1ccccc1Cl)Nc1cnn(Cc2ccccc2)c1 | 9.23
Cc1cccc([C@@H]2C[C@H]3CN(Cc4cccc(Cl)c4)C(=O)[C@]34CCCN24)n1 | -26
Cc1ccc(OC(F)F)c(N2C(=O)C3C4CCC(O4)C3C2=O)c1 (centres unmarked) | 11
O=C(NCCc1cccs1)C1CC(c2cccc([N+](=O)[O-])c2)=NO1 (centres unmarked) | -3.65
COc1ccc(OCc2nnc(SCC(=O)O)n2N)cc1 | 20.5
CCN(/N=C/C=C/c1ccccc1)c1cc(=O)n(C)c(=O)[nH]1 | 17.9
O=C(O)C1CCN(C(=O)c2cccc3ccccc23)CC1 | 8.82
CC1CC(C)CN(C(=O)COC(=O)C2CCN(S(=O)(=O)c3c(Cl)cccc3Cl)CC2)C1 (centres unmarked) | 10.1
CCOC(=O)C1=C(C)NC(=O)C(C#N)C1c1ccco1 (centres unmarked) | 4.9
Cc1ccc(Nc2c([N+](=O)[O-])c(=O)n(C)c3ccccc23)cc1 | 6.86
CN(C)C(=O)CCSc1nnc(-c2ccco2)o1 | 10.2
NC(=O)CC(NC(=O)Cc1cccc2ccccc12)c1ccc(N2CCN(c3ccccn3)CC2)c([N+](=O)[O-])c1 (centres unmarked) | 15.9
CCC(C)NC(=O)c1cc2cc3ccc(OC)cc3nc2o1 (centres unmarked) | 11
Cc1cc(C)c(Cn2c(=O)n(CCCC(=O)NCc3ccco3)c(=O)c3sccc32)c(C)c1 | 0.0553
O=C(COC(=O)c1ccc(O)cc1)Nc1ccccc1[N+](=O)[O-] | 11.9
CCCN1C(=O)/C(=N\OCC(=O)Nc2ccc(C(C)C)cc2)c2ccccc21 | 8.32
Cc1ccsc1/C=N/NC(=O)C1CC(=O)N(c2ccc(F)cc2)C1 (centres unmarked) | 2.12
C[C@@]1(CO)[C@H](O)CC[C@@]2(C)[C@H]1CC[C@H]1C[C@@H]3C[C@@]12CC[C@]3(O)CO | 10.3
COc1ccc(CN(C)c2ccc(S(=O)(=O)N3CCN(C)CC3)cc2[N+](=O)[O-])cc1OC | 12.8
Cc1ccc(C(=O)N/N=C/c2ccc(S(=O)(=O)[O-])o2)c(Cl)c1.[Na+] | 9.84
COc1ccc(C2(C(=O)Nc3ccc(C(=O)N4CCOCC4)cc3)CCOCC2)cc1 | 6.36

— paper PMC4336329 (PLoS ONE, 2015)
